Reference: PubChem BioAssay AID485297 (National Center for Advancing Translational Sciences (NCATS), 2010)
The campaign covered roughly 320,000 compounds. About 9,100 (2.8%) were called active. The inconclusive results got no clear call from the source; some entries with a clear call stand among them for comparison. Calls come from the whole dose curve; as a rule, active = well fitted activation curve with a large enough effect; inconclusive = small, poorly fitted or top-dose-only effect; inactive = no such curve, though single readings can be large or run the other way. No potency is given beside an inconclusive call; the fits are too rough.

assay: qHTS Assay for Rab9 Promoter Activators; settings: Huh7 Rab9 promoter-luciferase reporter, luminescence, 24 h; series mostly up to 9.22 µM; note: nearly all actives have a fitted effect of over 60% in size; for activation, negative = inhibition: % of control where 0% means no effect
Method in brief: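 Measured in stably transfected Huh7 cells bearing a Rab9 promoter–luciferase construct: 24 h compound treatment at 37 °C, followed by luminescence detection.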
Potency is the fitted concentration of half-maximal effect; tags give direction and shape of the fitted curve.

Structure (SMILES) | Potency | activation, negative = inhibition
O=C(Nc1ccc(Cl)cn1)Nc1cccs1 | inconclusive [activator, single point] | –
CC(=O)/C=C(\C)NCCNc1c(F)c(F)c(CO)c(F)c1F | inactive | –
Cc1cc(N2CCOCC2)nc(SCC(=O)c2ccccc2)n1 | inconclusive [activator, partial curve] | –
O=C(Nc1cccnc1Cl)c1ccc(Cl)cc1 | inconclusive [activator, partial curve] | –
Cc1ccc(-c2nn(-c3ccccc3)cc2C(=O)Nc2ccc(C(=O)O)cc2)cc1 | inconclusive [activator, single point] | –
COc1ccc(C/C(C)=N/NC(=S)Nc2ccc(C(C)C)cc2)cc1 | inactive | –
Cc1noc2ncc(C(=O)c3cc(F)ccc3O)cc12 | inactive | –
CC(=O)Nc1ccc(/C(C)=N/Nc2nc(N3CCOCC3)nc(N3CCOCC3)n2)cc1 | inactive | –
COn1c(-c2ccc(Cl)cc2)nc2ccc(Cl)cc21 | inconclusive [activator, partial curve] | –
N#Cc1cc2cc3c(cc2nc1SCC(=O)N1CCCC1)OCCO3 | inconclusive [activator, single point] | –
O=C(Nc1cccc(F)c1)c1ccc2c(c1)OCCO2 | active: 3.16 µM | –
CNC(=O)c1csc(-c2ccc(Cl)cc2)n1 | inconclusive [activator, single point] | –
CC(C)c1ccc(CNc2ncccn2)cc1 | inconclusive [activator, partial curve] | –
COc1cccc(NC(=O)Nc2ccc3nsnc3c2)c1 | active: 2.82 µM | –
Cc1ccnc(NC(=O)CCC(=O)c2cccs2)c1 | inconclusive [activator, single point] | –
CN(CCc1ccccc1)C1CCCN(C(=O)Cn2cccn2)C1 (stereo unspecified) | inactive | –
COC(=O)CCCNC(=O)c1ccc2oc(CCCc3ccccc3)nc2c1 | inconclusive [activator, partial curve] | –
O=C(N/N=C\c1ccc(Cl)s1)c1cccs1 | inconclusive [activator, single point] | –
CCCC(=O)Nc1nc(-c2ccccc2)ns1 | inconclusive [activator, single point] | –
Cc1ccc(N2C(=O)NC(C(F)(F)F)(C(F)(F)F)C3=C2CC(C)(C)CC3=O)cc1 | inactive | –
CCn1c(SCC(=O)c2ccc(Cl)cc2)nnc1C(C)C | inconclusive [activator, partial curve] | –
CCOc1ccc(C(=O)NCC(=O)OCC(=O)NC2CCCC2)cc1 | inactive | –
Cn1c(=NC(=O)c2ccco2)sc2cccc(F)c21 | inconclusive [activator, partial curve] | –
Clc1ccc(-c2cn3c(n2)CCC3)cc1 | inconclusive [activator, partial curve] | –
CC(=O)c1ccc(NC(=O)c2cnsn2)cc1 | active: 1 µM | –
Oc1ccc(-c2nccc(-c3ccccn3)n2)cc1 | inconclusive [activator, single point] | –

Structure (SMILES) | Potency | activation, negative = inhibition
COc1ccc2c(c1)CCc1c(C(=O)N(C)c3ccccc3)noc1-2 | inconclusive [activator, partial curve] | –
Cc1ccccc1OCC(O)Cn1c(NCc2ccco2)nc2c1c(=O)[nH]c(=O)n2C (stereo unspecified) | inactive | –
Nc1ccc(-c2nc3c(ccc4ccccc43)[nH]2)cc1 | inconclusive [activator, partial curve] | –
COc1ccccc1N1CCN(/N=C\c2ccccc2)CC1 | inconclusive [activator, partial curve] | –
COc1ccc(NC(=O)CN(C)C(=O)CNC(=O)c2sc3ccccc3c2Cl)cc1 | inconclusive [activator, single point] | –
Cc1ccc(C(=O)OCC(=O)Nc2ccccc2Sc2ccccc2)cc1C | inactive | –
Nc1ccc(-c2nnc(-c3ccc(N)cc3)o2)cc1 | active: 3.55 µM | –
O=C(CCNC(=O)c1ccc(Cl)cc1)NCCC1=CCCCC1 | inconclusive [activator, partial curve] | –
CCOc1ccc(-c2nc(CSCC(=O)NC3CC3)c(C)o2)cc1 | inactive | –
COc1ccc(C(=O)Nc2cccc(S(C)(=O)=O)c2)cc1 | inactive | –
C/C(=N\NC(=O)CCc1ccccc1)C1C(=O)c2ccccc2C1=O | inconclusive [activator, single point] | –
FC(F)(F)c1ccnc(Oc2ccc(C3=NCCS3)cc2)c1 | active: 0.708 µM | –
CN1CCC(=NNC(=O)C(=O)Nc2ccccc2)CC1 | inconclusive [activator, single point] | –
COc1ccc(CNC(=O)COC(=O)c2n[nH]c3ccccc23)cc1OC | inactive | –
Fc1ccc(-c2csc(N3CCOCC3)n2)cc1 | active: 2.51 µM | –
Cc1ccc(C(=O)OCC(=O)NC2CCCC2)cc1C | – | inactive: 0.288% [at 1.84 µM]
O=C(NC1CCc2ccccc21)c1cc(COc2cncc(Cl)c2)on1 (stereo unspecified) | inconclusive [activator, partial curve] | –
Cc1cccc(/C(N)=N/OC(=O)c2ccc3c(c2)OCO3)c1 | active: 2.82 µM | –
Cn1c2ccc(F)cc2c2nnc(SCC(=O)Nc3cccc(O)c3)nc21 | inactive | –
COc1c(O)cc2c(c1O)C(=O)CC(c1ccccc1)O2 (stereo unspecified) | inconclusive [activator, single point] | –
COC(=O)c1ccc(CO/N=C2\CCCc3nonc32)cc1 | inconclusive [activator, partial curve] | –
O=C(NCC1CCCO1)c1cc2ccccc2oc1=O (stereo unspecified) | inconclusive [activator, single point] | –
N#Cc1c(SCC(=O)Nc2ccc(Cl)cc2Cl)sc2c(O)cc(=O)[nH]c12 | inconclusive [activator, single point] | –
CCOC(=O)C1CCN(C(=O)CCCn2nc(C)c3c(C)n(-c4ccc(C)cc4)nc3c2=O)CC1 | inactive | –
C=C1CCN([C@H](C(=O)NCc2ccco2)C(C)C)S(=O)(=O)c2ccccc21 | inactive | –
